The values below come from publication PMC9124243 (Cell chemical biology, 2021).

The target in the assay is Mtb DnaK with and without cofactors (Mycobacterium tuberculosis, UniProt P9WMJ9). It counts as biochemical. To be noted: for inhibition of ATPase activation: 50 μM compound, equimolar DnaK:GrpE, sub-stoichiometric DnaJ2.
UniProt P9WMJ9, sequence (P9WMJ9 whole entry): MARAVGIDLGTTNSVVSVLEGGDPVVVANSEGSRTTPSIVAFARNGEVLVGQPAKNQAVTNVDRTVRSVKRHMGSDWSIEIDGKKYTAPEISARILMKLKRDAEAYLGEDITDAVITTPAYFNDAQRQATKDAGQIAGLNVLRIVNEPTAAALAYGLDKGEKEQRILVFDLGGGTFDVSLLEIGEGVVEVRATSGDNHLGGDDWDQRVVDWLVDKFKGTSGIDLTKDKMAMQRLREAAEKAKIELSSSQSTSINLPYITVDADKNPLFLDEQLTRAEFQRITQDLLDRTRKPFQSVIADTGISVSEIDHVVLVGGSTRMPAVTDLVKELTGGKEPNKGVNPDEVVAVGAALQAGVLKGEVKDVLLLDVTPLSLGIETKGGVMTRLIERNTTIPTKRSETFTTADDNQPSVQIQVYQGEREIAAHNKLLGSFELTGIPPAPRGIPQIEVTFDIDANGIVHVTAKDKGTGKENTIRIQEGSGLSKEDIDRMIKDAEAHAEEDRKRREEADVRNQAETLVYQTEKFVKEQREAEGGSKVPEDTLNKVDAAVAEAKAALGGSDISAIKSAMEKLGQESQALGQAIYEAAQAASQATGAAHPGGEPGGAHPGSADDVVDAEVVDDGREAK

On to `CCC[C@H](NC(=O)[C@@H]1[C@H]2CCC[C@H]2CN1C(=O)[C@@H](NC(=O)[C@@H](NC(=O)c1cnccn1)C1CCCCC1)C(C)(C)C)C(=O)C(=O)NC1CC1` [TP, Telaprevir], for which, under “HPLC, TP added”, the “ADP level in DnaK and cofactor reactions” value is “returned the level of ADP to that of reactions containing DnaK only”; the “ADP level in DnaK only reactions” value was “did not significantly change the level of ADP produced”.
For `CNC(=O)[C@H]1O[C@@H](n2cnc3c(NCc4cccc(I)c4)nc(Cl)nc32)[C@H](O)[C@@H]1O` [MECA, 2Cl-IB-MECA], the “inhibition of ATPase activation” value is listed as “showed inhibition”.
On the same count and under the same terms, in the case of `N#Cc1ccc(COC[C@H]2O[C@@H](n3c(NCc4ccc(Cl)c(Cl)c4)nc4c(N)ncnc43)[C@H](O)[C@@H]2O)cc1` [VER-155008] it was “only MECA showed inhibition”; in that of `CNC(=O)[C@H]1O[C@@H](n2cnc3c(NCc4ccc(N)cc4)ncnc32)[C@H](O)[C@@H]1O` [AB-MECA], “only MECA showed inhibition”.
